Measurements taken from the supplement of paper PMC10338343.
± gives the standard deviation. The entries are a selection whose mix differs from that of the whole data set.

tested on: MIWI (PIWIL1) piRISC loaded with piRNA #1 (30 nt); test: pre-steady-state target cleavage rate (min^-1); MIWI and MILI are mouse PIWI proteins and EfPiwi is from a freshwater sponge; tags in brackets are library labels; higher = faster piRNA-guided slicing of the target; conditions: guide: piRNA #1 5'p-UGAGGUAGUAGGUUGUAUAGUAUCCAGAGG; auxiliary factor: 500 nM mouse GTSF1
Summary of the method: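 Reactions were run for 0–8 or 0–960 min at 33 °C in HEPES–potassium acetate buffer, combining 1 nM active affinity-purified piRISC with one synthetic guide, […] transcribed, DNA-blocked target RNA library and, in some cases, 500 nM GTSF1 partner protein. Sequencing of uncleaved targets followed, with normalisation to depth and to weakly complementary targets. Three trials were pooled, k3 was capped at 0.0001 min^-1, and the pre-steady-state cleavage rate was taken from a burst-and-steady-state fit.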
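Note: 1 nM active piRISC with 0.1 nM target library at 33 °C single turnover.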

Sequence	pre-steady-state target cleavage rate
GCUCUGGAUACUAUACAACCUACUCACCUCA	1.05 ± 0.098
GGACUGGAUACUAUACUACCUUCUACCUCA	0.219 ± 0.024
CCUCUGGAUACUAUACAUCCAACUACCUCA	0.115 ± 0.019
CCUCUGGAUACUAUUCAAGCUACUACCUCA	1.36 ± 0.067
CCUCUGGAUACUAUACUACCAACUACCUCA	0.0297 ± 0.007
GGAGACCAUACUAUACAACCUACUACCUCG [g2:g23:cont:t1G]	1.52 ± 0.081
GGAGACCUAUGAUAUGUACCGACUACCUCA	< 0.0001
GGAGACCUAUCUAUACAACCUUCUACCUCA	0.129 ± 0.013
GGUCUGUAUACUAUACAACCUACUACCUCA	1.71 ± 0.12
GGACUGGAUACUAUACAACCUACUACGACA	0.158 ± 0.029
GGAGAGGAUACUAGUACAACCUACUACCUCA	0.299 ± 0.042
CCUCUGGAUAGUAUACAACCUACUACCACA	0.0403 ± 0.012
GGAGAGGAUACAAUACAACCUACUUCCUCA	0.246 ± 0.043
GGAGACCUAACUAUACAACCUAUCUACCUCA	0.0122 ± 0.0045
CCUCUGGAAACUAUACAACCUACUACCUCA	1.97 ± 0.11
GGAGACCUAUGAAUACAACCUACUACAUCA	0.00568 ± 0.0027
CCUCUGGCUACUAUACAACCUACUACCUCA	2.25 ± 0.11
GGAGUGGAUACUAUACAAUCUACUACCUCA	0.396 ± 0.022
GGUCGGGAUACUAUACAACCUACUACCUCA	1.66 ± 0.11
GGAGACCUAUGAUAUGAAGCCUACUACCUCA	< 0.0001

Sequence	pre-steady-state target cleavage rate
GGAGUGGAUACUAAACAACCUACUACCUCA	1.51 ± 0.092
GGACUGGAUACUAUACCACCUACUACCUCA	1.17 ± 0.082
GGAGACCUUUCUUUACAACCUACUACCUCA	0.161 ± 0.026
GGUCUGGAUACUAUAGAUCCUACUACCUCA	0.944 ± 0.072
GGAGACCAUACUAUACAACCUACGUACCUCA	0.628 ± 0.041
GGAGACCAUAGUAUUCAACCUACUACCUCA	0.089 ± 0.017
GGAGAGGAUACUAUACAACCUACUACGUCA	0.432 ± 0.031
GGAGACCAUACUAUCAACCUACUACCUCA	1.08 ± 0.099
GGUGUGGAUACUAUACAACCUAGUACCUCA	0.393 ± 0.051
GGACUGGAUACUAUACAACCUACUACCUCG [g2:g27:cont:t1G]	1.01 ± 0.1
GGAGACCUAACUAUACAACCCACUACCUCA	0.253 ± 0.02
GGAGACCUUACUAUACAACCUACUACGUCA	0.997 ± 0.068
GGAGACCUAUGUAUACAACCUACUACGAGA	0.00638 ± 0.0053
GGAGACCAUACUAUACAACCUACUUGGUCA	0.00584 ± 0.0035
GCUCUGGAUACUAUACAACCUACUAGCACA	0.455 ± 0.086
CCUCUGGAUACUUUAGAACCUACUACCUCA	1.09 ± 0.069
GGAGACCAUACAAUACAACCUUCUACCUCA	0.23 ± 0.032
GGAGACCAUACUAUACAAACUACUACCUCA	0.758 ± 0.04
CCUCUGGAUACAAUACAAGCUACUACCUCA	1.45 ± 0.077
GGAGACGAUACUAUUCAACCUACUUCCUCA	0.197 ± 0.039
